According to the BET-seq Pho4 binding data (Le et al. 2018):
This is one part of the list. These are noisy estimates, calculated here from bound and input reads.

Each sequence was assayed against T1, Pho4 (S. cerevisiae) (UniProt P07270) (assay: relative binding free energy (BET-seq); higher = weaker binding). Settings: reference: library average.
T1 sequence: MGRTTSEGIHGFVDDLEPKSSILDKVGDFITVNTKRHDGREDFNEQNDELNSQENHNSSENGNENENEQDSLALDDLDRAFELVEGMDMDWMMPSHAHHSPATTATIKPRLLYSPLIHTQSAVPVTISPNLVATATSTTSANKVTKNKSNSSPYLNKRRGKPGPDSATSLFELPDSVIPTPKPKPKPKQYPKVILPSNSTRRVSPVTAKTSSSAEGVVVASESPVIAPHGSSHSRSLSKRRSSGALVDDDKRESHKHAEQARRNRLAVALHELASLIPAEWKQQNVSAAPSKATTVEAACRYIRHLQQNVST

Sequence	relative binding free energy [kcal/mol]
TTCATCACGTGGAGGA	0.31
GGTTACACGTGGTGCA	0.08
GATTGCACGTGCGCGG	-0.08
GGTTGCACGTGATTTC	0.28
TGCGTCACGTGAGGTC	0.22
TTGGGCACGTGCGGGT	-0.07
TCTAGCACGTGAATGG	0.31
TATTCCACGTGAGTTG	0.33
GTTTTCACGTGTATTG	0.27
TAGAGCACGTGCTTGG	-0.16
TAGGTCACGTGTAAAA	0.11
ACGTTCACGTGTGGTT	0.29
AGAGGCACGTGGATTA	-0.05
TTTGTCACGTGGAGGG	0.11
ATACACACGTGATGGT	0.17
GGGTTCACGTGTGACG	0.27
GTATTCACGTGCTGTA	0.18
ATTACCACGTGGGTGT	-0.18
GTGAGCACGTGCAGTA	-0.02
GTTGCCACGTGGTGTC	0.02
CTGGTCACGTGAGGCG	0.07

Sequence	relative binding free energy [kcal/mol]
GGGGACACGTGGTTTT	0.1
GTTACCACGTGTGGGA	-0.07
TGGTGCACGTGACTAT	0.02
TGGTTCACGTGGCTGA	0.24
GACTTCACGTGTTAGT	0.2
TAATGCACGTGATTAT	-0.06
GGGTTCACGTGATGTA	0.28
GGAAACACGTGTTGTT	0.03
TCTTCCACGTGGTAGG	0.09
GTCTGCACGTGGGGTA	-0.07
GGCGGCACGTGTGTGG	0.07
ATTGACACGTGTGTCT	0.1
CATGGCACGTGATGTT	0.11
CGTCGCACGTGGGTGT	-0.15
GAAGTCACGTGCTGGG	0.07
ATGGGCACGTGCATGG	-0.14
TTTTTCACGTGTACAG	0.24
TGGCACACGTGTGTTG	-0.02
GCGTGCACGTGGGAAT	-0.14
TGTAGCACGTGGGCCG	-0.25
TAGTTCACGTGTTTGG	0.25

Sequence	relative binding free energy [kcal/mol]
TCATTCACGTGGCGGT	0.19
CGTTGCACGTGTTTGA	-0.02
ATGCGCACGTGGTAGT	-0.14
GGCGCCACGTGGGACG	0.02
AGCTTCACGTGTTGGA	0.25
AAGCACACGTGTGTGT	0.15
TTAAGCACGTGGGTAC	-0.21
CGGGGCACGTGGAGAG	0
AGAAGCACGTGAGGAT	0.33
GTGCCCACGTGAGGGG	-0.07
TTTTGCACGTGGAAGC	-0.06
AACGTCACGTGTGTGC	0.15
ACTGACACGTGTGATG	0.11
ATTATCACGTGGCAAG	0.13
GTTAACACGTGGTGGT	-0.02
CAGAACACGTGTTGGG	0.05
ATAAACACGTGTTTTT	0.1
AGGGGCACGTGATAGT	0.06
ATAGACACGTGTTGTT	-0.13
GATTGCACGTGGATTG	0.14
GCAGGCACGTGGGCGT	-0.3
